These are yes or no findings as the source states them, for the method shown. Some entries that bind do so weakly or less than the wild type.
How the values were obtained:
[1] = biological target: AGAMOUS-LIKE 6 (AGL6) (Arabidopsis thaliana) (UniProt P29386); assay: two-hybrid; pairs of pDEST-AD and pDEST-DB vectors co-transformed into yeast strain AH109; growth on higher stringency plates, -HWL with 30 mM 3AT, after 6 days (Figure 6B)
[2] = biological target: T1, AGAMOUS-LIKE 24 (AGL24) (Arabidopsis thaliana) (UniProt O82794); assay: two-hybrid; pairs of pDEST-AD and pDEST-DB vectors co-transformed into yeast strain AH109; growth on lower stringency plates, -HWL with 20 mM 3AT, after 6 days (Figure 6A; for AP1, mAP1 and FUL the text cites Figure 6 as a whole)
T1 sequence: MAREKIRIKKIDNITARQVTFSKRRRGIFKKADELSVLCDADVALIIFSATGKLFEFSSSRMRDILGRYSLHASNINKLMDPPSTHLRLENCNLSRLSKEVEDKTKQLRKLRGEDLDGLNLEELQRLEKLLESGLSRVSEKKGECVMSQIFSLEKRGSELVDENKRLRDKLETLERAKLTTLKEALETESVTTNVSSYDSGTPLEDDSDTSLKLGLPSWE

Amino acid sequences for entries named in this document (tags omitted).
UniProt P29386: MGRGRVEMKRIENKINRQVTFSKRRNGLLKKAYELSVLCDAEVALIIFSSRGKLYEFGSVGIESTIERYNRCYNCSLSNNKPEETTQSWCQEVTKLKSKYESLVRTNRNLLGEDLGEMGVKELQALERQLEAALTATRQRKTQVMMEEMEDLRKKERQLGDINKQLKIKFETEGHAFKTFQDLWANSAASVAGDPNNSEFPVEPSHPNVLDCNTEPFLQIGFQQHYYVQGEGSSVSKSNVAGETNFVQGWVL
UniProt P29382: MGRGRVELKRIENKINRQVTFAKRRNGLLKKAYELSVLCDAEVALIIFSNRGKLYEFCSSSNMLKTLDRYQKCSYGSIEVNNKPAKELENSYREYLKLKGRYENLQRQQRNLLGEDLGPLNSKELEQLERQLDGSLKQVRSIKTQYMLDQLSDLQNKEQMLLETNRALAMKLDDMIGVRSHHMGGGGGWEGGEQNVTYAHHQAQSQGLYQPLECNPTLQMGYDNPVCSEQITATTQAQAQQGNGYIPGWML
UniProt O22456: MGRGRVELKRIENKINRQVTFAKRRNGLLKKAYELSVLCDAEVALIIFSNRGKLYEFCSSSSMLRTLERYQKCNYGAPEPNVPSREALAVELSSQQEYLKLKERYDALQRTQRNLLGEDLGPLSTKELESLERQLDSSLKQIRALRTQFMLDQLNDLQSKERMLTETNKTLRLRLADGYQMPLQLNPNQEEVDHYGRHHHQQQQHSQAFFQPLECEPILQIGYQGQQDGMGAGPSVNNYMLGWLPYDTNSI
UniProt Q38876: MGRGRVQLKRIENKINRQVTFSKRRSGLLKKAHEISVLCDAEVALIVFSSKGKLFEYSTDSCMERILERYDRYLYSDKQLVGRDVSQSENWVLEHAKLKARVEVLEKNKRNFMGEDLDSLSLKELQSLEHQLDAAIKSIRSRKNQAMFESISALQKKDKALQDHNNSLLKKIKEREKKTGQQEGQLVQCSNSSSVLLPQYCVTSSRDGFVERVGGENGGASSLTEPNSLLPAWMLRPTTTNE

[3] = biological target: AGAMOUS-LIKE 6 (AGL6) (Arabidopsis thaliana) (UniProt P29386); assay: as above
[4] = biological target: T2, APETALA3 (AP3) (Arabidopsis thaliana) (UniProt P35632); assay: as above
T2 sequence: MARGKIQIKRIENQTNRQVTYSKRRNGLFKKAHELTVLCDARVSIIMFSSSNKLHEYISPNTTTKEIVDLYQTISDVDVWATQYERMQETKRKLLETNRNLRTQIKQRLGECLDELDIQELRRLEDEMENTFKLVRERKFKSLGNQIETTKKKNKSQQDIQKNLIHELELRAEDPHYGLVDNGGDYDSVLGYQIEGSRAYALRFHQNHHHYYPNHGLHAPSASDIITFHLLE

[5] = biological target: T3, … (PI) (Arabidopsis thaliana) (UniProt P48007); assay: as above
T3 sequence: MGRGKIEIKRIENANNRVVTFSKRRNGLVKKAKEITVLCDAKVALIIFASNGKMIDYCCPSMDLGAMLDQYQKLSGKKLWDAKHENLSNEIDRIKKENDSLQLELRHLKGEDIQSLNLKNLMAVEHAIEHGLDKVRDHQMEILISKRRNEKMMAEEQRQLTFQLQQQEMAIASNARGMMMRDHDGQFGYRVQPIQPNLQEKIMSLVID

[6] = biological target: …1 (SEP1) (Arabidopsis thaliana) (UniProt P29382); assay: as above
[7] = biological target: …3 (SEP3) (Arabidopsis thaliana) (UniProt O22456); assay: as above

binding [1]: binds
binding [2]: binds
binding [3]: binds
binding [4]: no binding
binding [5]: no binding
binding [6]: binds
binding [7]: binds
Sequence: FRUITFULL (FUL) (from UniProt Q38876 1-242)
